In the supplement of paper PMC8728848:
The list shows a part of the results.

Tests used:
Assay in all cases: glycan array binding signal (z-score within array); higher = stronger binding
Conditions in all cases: glycan notation: IUPAC condensed, linker removed
[1] = molecular target: Neu5Ac(a2-8)Neu5Ac
Summary of the method: (§1)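 Glycan array data came from 3228 arrays in the Consortium for Functional Glycomics database, and only arrays with an available protein sequence were kept. Glycan names were put into IUPAC-condensed notation, and columns mapping to the same glycan were averaged. The binding signal is a within-array Z-score, averaged across arrays of one protein sequence run at different concentrations or buffers and across linkers. A negative Z-score can be read as non-binding.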

[2] = molecular target: Neu5Ac(a2-8)Neu5Ac(a2-3)Gal(b1-3)GalNAc(b1-4)[Neu5Ac(a2-3)]Gal(b1-4)Glc
Summary of the method: as §1

[3] = molecular target: Neu5Ac(a2-8)Neu5Ac(a2-3)Gal(b1-3)GalNAc(b1-4)[Neu5Ac(a2-8)Neu5Ac(a2-3)]Gal(b1-4)Glc
Summary of the method: as §1

[4] = molecular target: Neu5Ac(a2-8)Neu5Ac(a2-3)Gal(b1-4)Glc
Summary of the method: as §1

[5] = molecular target: Neu5Ac(a2-8)Neu5Ac(a2-3)Gal(b1-4)GlcNAc
Summary of the method: as §1

[6] = molecular target: Neu5Ac(a2-8)Neu5Ac(a2-3)[Gal(b1-3)GalNAc(b1-4)]Gal(b1-4)Glc
Summary of the method: as §1

[7] = molecular target: Neu5Ac(a2-8)Neu5Ac(a2-3)[GalNAc(b1-4)]Gal(b1-4)Glc
Summary of the method: as §1

[8] = molecular target: Neu5Ac(a2-8)Neu5Ac(a2-8)Neu5Ac
Summary of the method: as §1

[9] = molecular target: Neu5Ac(a2-8)Neu5Ac(a2-8)Neu5Ac(a2-3)Gal(b1-4)Glc
Summary of the method: as §1

[10] = molecular target: Neu5Ac(a2-8)Neu5Ac(a2-8)Neu5Ac(a2-3)[Gal(b1-3)GalNAc(b1-4)]Gal(b1-4)Glc
Summary of the method: as §1

[11] = molecular target: Neu5Ac(a2-8)Neu5Ac(a2-8)Neu5Ac(a2-3)[GalNAc(b1-4)]Gal(b1-4)Glc
Summary of the method: as §1

[12] = molecular target: Neu5Ac(a2-8)Neu5Ac(a2-8)Neu5Ac(a2-8)Neu5Ac(a2-3)[GalNAc(b1-4)]Gal(b1-4)Glc
Summary of the method: as §1

[13] = molecular target: Neu5Ac(a2-8)Neu5Gc(a2-3)Gal(b1-4)GlcNAc
Summary of the method: as §1

[14] = molecular target: Neu5Ac(b2-6)Gal(b1-4)GlcNAc
Summary of the method: as §1

[15] = molecular target: Neu5Ac(b2-6)GalNAc
Summary of the method: as §1

[16] = molecular target: Neu5Ac9Ac(a2-3)Gal(b1-3)GlcNAc
Summary of the method: as §1

[17] = molecular target: Neu5Ac9Ac(a2-3)Gal(b1-4)GlcNAc
Summary of the method: as §1

[18] = molecular target: Neu5Ac9Ac(a2-6)Gal(b1-4)GlcNAc
Summary of the method: as §1

[19] = molecular target: Neu5Gc(a2-3)Gal(b1-3)GlcNAc
Summary of the method: as §1

[20] = molecular target: Neu5Gc(a2-3)Gal(b1-3)[Fuc(a1-4)]GlcNAc
Summary of the method: as §1

[21] = molecular target: Neu5Gc(a2-3)Gal(b1-4)Glc
Summary of the method: as §1

[22] = molecular target: Neu5Gc(a2-3)Gal(b1-4)GlcNAc
Summary of the method: as §1

[23] = molecular target: Neu5Gc(a2-3)Gal(b1-4)GlcNAc(b1-3)Gal(b1-4)GlcNAc(b1-2)Man(a1-3)[Neu5Gc(a2-3)Gal(b1-4)GlcNAc(b1-3)Gal(b1-4)GlcNAc(b1-2)Man(a1-6)]Man(b1-4)GlcNAc(b1-4)GlcNAc
Summary of the method: as §1

[24] = molecular target: Neu5Gc(a2-3)Gal(b1-4)[Fuc(a1-3)]GlcNAc
Summary of the method: as §1

[25] = molecular target: Neu5Gc(a2-6)Gal(b1-4)GlcNAc
Summary of the method: as §1

[26] = molecular target: Neu5Gc(a2-6)GalNAc
Summary of the method: as §1

[27] = molecular target: Neu5Gc(a2-8)Neu5Ac(a2-3)Gal(b1-4)GlcNAc
Summary of the method: as §1

[28] = molecular target: Neu5Gc(a2-8)Neu5Gc(a2-3)Gal(b1-4)GlcNAc
Summary of the method: as §1

[29] = molecular target: Neu5Gc(a2-8)Neu5Gc(a2-3)Gal(b1-4)GlcNAc(b1-3)Gal(b1-4)GlcNAc
Summary of the method: as §1

[30] = molecular target: Neu5Gc(a2-8)Neu5Gc(a2-6)Gal(b1-4)GlcNAc
Summary of the method: as §1

[31] = molecular target: Neu5Gc(b2-6)Gal(b1-4)GlcNAc
Summary of the method: as §1

B1: Epa6 (Candida glabrata), Q6DTM7_CANGB (protein)
chain: MGSSHHHHHHSSGLVPRGSHMKDDYSSSLSNNNLGWTDPTEFPLGCSPNVTTPKNGLSMELYSYDYLKSGSNPCWDAAYLDPNYPRTGYKSHRLLAKVENVAGNINFYYHAPMGCTSLFDTLPQAYNYRTPLTMTNFTMLLYGYFKPKVTGYHTFTISADDLLFVNFGAGNAFDCCKRESSADDFGNYQAYAVWGSQTAKDDLTVHLDAGLYYPIRIFFNNRDNDGALSLTLKTESDPNPVIDFSDYFYSFDDTKDGCPGLVSYDTS
glycan array binding signal (z-score) [1]: -0.308 | glycan array binding signal (z-score) [2]: -0.27 | glycan array binding signal (z-score) [3]: -0.191 | glycan array binding signal (z-score) [4]: -0.347 | glycan array binding signal (z-score) [5]: -0.334 | glycan array binding signal (z-score) [6]: 1.19 | glycan array binding signal (z-score) [7]: -0.332 | glycan array binding signal (z-score) [8]: -0.301 | glycan array binding signal (z-score) [9]: -0.321 | glycan array binding signal (z-score) [10]: -0.146 | glycan array binding signal (z-score) [11]: -0.341 | glycan array binding signal (z-score) [12]: -0.322 | glycan array binding signal (z-score) [13]: -0.299 | glycan array binding signal (z-score) [14]: -0.25 | glycan array binding signal (z-score) [15]: -0.317 | glycan array binding signal (z-score) [16]: -0.319 | glycan array binding signal (z-score) [17]: -0.331 | glycan array binding signal (z-score) [18]: -0.307 | glycan array binding signal (z-score) [19]: -0.296 | glycan array binding signal (z-score) [20]: -0.331 | glycan array binding signal (z-score) [21]: -0.321 | glycan array binding signal (z-score) [22]: -0.323 | glycan array binding signal (z-score) [23]: -0.311 | glycan array binding signal (z-score) [24]: -0.284 | glycan array binding signal (z-score) [25]: -0.302 | glycan array binding signal (z-score) [26]: -0.311 | glycan array binding signal (z-score) [27]: -0.258 | glycan array binding signal (z-score) [28]: -0.336 | glycan array binding signal (z-score) [29]: -0.28 | glycan array binding signal (z-score) [30]: -0.285 | glycan array binding signal (z-score) [31]: -0.181
